The chains are these.
B1: Caulobacter ParB omega fusion; a variant is named by its letters at X, in order, B8GW30 (parent)
chain: MESVVVGEPGMSEGRRGLGRGLSALLGEVDAAPAQAPGEQLGGSREAPIEILQRNPDQPRRTFREEDLEDLSNSIREKGVLQPILVRPSPDTAGEYQIVAGERAWRAAQRAGLKTVPIMVRELDDLAVLEIGIIENVQRADLNVLEEALSYKVLMEKFERTQENIAQTIGKSXSHVANXMRLLXLPDEVQSYLVSGELTAXHARAIAAAADPVALAKQIIEGGLSVRETEALARKAPNLSAGKSKGGRPPRVKDTDTQALESDLSSVLGLDVSIDHRGSTGTLTITYATLEQLDDLCNRLTRGI

Over roughly 81,000 sequences, “one-hybrid fitness for binding NBS DNA” has its median near -0.1; the highest 2% begin near 0.36. The list shows a part of the results.

The variants in the assay derive from B1. Nature of the assay: one-hybrid fitness for binding NBS DNA (the Noc-binding site; scaled: cognate 1, non-cognate 0); higher = stronger binding. To be noted: with NBS DNA site. The procedure, abridged: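 Fitness is the rescaled log change in variant-to-wild-type read ratio, measured by Illumina sequencing of plasmids before and after bacterial one-hybrid selection. The scale puts cognate at 1 and non-cognate at 0. Selection of Caulobacter ParB libraries, four specificity codons randomised, took place in E. coli USO with a HIS3 reporter, site 19 bp from the promoter, over 48 hours at 37°C on M9-minus-histidine with 0.1 mM IPTG and 5 mM 3-AT.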
Turning to CCVT, the “one-hybrid fitness for binding NBS DNA” value was no more than 0.2.
The same measure for KTAC: no more than 0.2; for PHEA: no more than 0.2; for RNPR: no more than 0.2.
The same measure for DNYL: no more than 0.2; for HSSL: no more than 0.2; for SMAE: no more than 0.2.
Regarding WVDT, the “one-hybrid fitness for binding NBS DNA” value was no more than 0.2.
For the variant HDTF, the “one-hybrid fitness for binding NBS DNA” value was no more than 0.2.
As to NSNS, the “one-hybrid fitness for binding NBS DNA” value was no more than 0.2.
As to RACF, the “one-hybrid fitness for binding NBS DNA” value was no more than 0.2.
With MRTA, the “one-hybrid fitness for binding NBS DNA” value was no more than 0.2.
Turning to EDAG, the “one-hybrid fitness for binding NBS DNA” value was no more than 0.2.
As for KVRC, the “one-hybrid fitness for binding NBS DNA” value was no more than 0.2.
On to EMQL, for which the “one-hybrid fitness for binding NBS DNA” value was no more than 0.2.
To CQNL belongs no more than 0.2; to MQYS, no more than 0.2.
For PAKH, the “one-hybrid fitness for binding NBS DNA” value is no more than 0.2.
For RGCQ, the “one-hybrid fitness for binding NBS DNA” value is no more than 0.2.
To RSWC belongs no more than 0.2; to EGSL, no more than 0.2.
To SWNC belongs no more than 0.2; to QMKQ, 0.417.
To QKPM belongs no more than 0.2; to MDDS, no more than 0.2.
Regarding GQGY, the “one-hybrid fitness for binding NBS DNA” value is no more than 0.2.
The same measure for ECIL: no more than 0.2.
With NNSS, the “one-hybrid fitness for binding NBS DNA” value was no more than 0.2.
On to IPAS, for which the “one-hybrid fitness for binding NBS DNA” value is no more than 0.2.
On to ANLF, for which the “one-hybrid fitness for binding NBS DNA” value was no more than 0.2.
The same measure for SEMD: no more than 0.2.
The same measure for PPKR: no more than 0.2; for LVNA: no more than 0.2; for SNMY: no more than 0.2.
For the variant DLVA, the “one-hybrid fitness for binding NBS DNA” value was no more than 0.2.
With IQCC, the “one-hybrid fitness for binding NBS DNA” value was no more than 0.2.
To HHAM belongs no more than 0.2; to NQNL, no more than 0.2; to ALCT, no more than 0.2.
The same measure for GTQF: no more than 0.2; for QQLG: no more than 0.2; for REVF: no more than 0.2.
The same measure for RTDL: no more than 0.2; for NQPN: no more than 0.2.
With MEKA, the “one-hybrid fitness for binding NBS DNA” value is no more than 0.2.
LNWS: the “one-hybrid fitness for binding NBS DNA” value is no more than 0.2.
The same measure for ASDN: no more than 0.2; for RPCY: no more than 0.2.
To SKVL belongs no more than 0.2.
As for AKKC, the “one-hybrid fitness for binding NBS DNA” value is no more than 0.2.
Turning to ARTC, the “one-hybrid fitness for binding NBS DNA” value was no more than 0.2.
Consider TSFC, for which the “one-hybrid fitness for binding NBS DNA” value is no more than 0.2.
The same measure for RPGV: no more than 0.2.
As for SICG, the “one-hybrid fitness for binding NBS DNA” value was no more than 0.2.
The same measure for IEIS: no more than 0.2; for QRRA: 0.674; for DMFG: no more than 0.2.
DLKS: the “one-hybrid fitness for binding NBS DNA” value is no more than 0.2.
To SRYQ belongs no more than 0.2.
MIYT: the “one-hybrid fitness for binding NBS DNA” value is no more than 0.2.
As to YLDY, the “one-hybrid fitness for binding NBS DNA” value was no more than 0.2.
In the case of HNVA, the “one-hybrid fitness for binding NBS DNA” value is no more than 0.2.
To QLRH belongs 0.452; to IDNY, no more than 0.2; to TYLC, no more than 0.2.
On to RLHL, for which the “one-hybrid fitness for binding NBS DNA” value was no more than 0.2.
To HQNF belongs no more than 0.2; to QRNW, 0.326; to DSFR, no more than 0.2.
As to LCCW, the “one-hybrid fitness for binding NBS DNA” value is no more than 0.2.
The same measure for RQCD: no more than 0.2; for GQCS: no more than 0.2.
On to QKSR, for which the “one-hybrid fitness for binding NBS DNA” value was determined as 0.65.
As for SIYG, the “one-hybrid fitness for binding NBS DNA” value was no more than 0.2.
As to EEPL, the “one-hybrid fitness for binding NBS DNA” value is no more than 0.2.
In the case of NHRV, the “one-hybrid fitness for binding NBS DNA” value was no more than 0.2.
To RTWT belongs 0.356.
Consider ILWC, for which the “one-hybrid fitness for binding NBS DNA” value was no more than 0.2.
Take QSMQ: the “one-hybrid fitness for binding NBS DNA” value is no more than 0.2.
To APQD belongs no more than 0.2; to AHKA, no more than 0.2.
With PKKG, the “one-hybrid fitness for binding NBS DNA” value is no more than 0.2.
The same measure for WFVG: no more than 0.2.
For DPCI, the “one-hybrid fitness for binding NBS DNA” value was no more than 0.2.
To LRCG belongs no more than 0.2.
Regarding TSEG, the “one-hybrid fitness for binding NBS DNA” value was no more than 0.2.
As to ITTD, the “one-hybrid fitness for binding NBS DNA” value was no more than 0.2.
For the variant FHYG, the “one-hybrid fitness for binding NBS DNA” value is no more than 0.2.
To TQDN belongs no more than 0.2; to PNIN, no more than 0.2; to RNDV, no more than 0.2.
The same measure for VFAS: no more than 0.2; for NGFG: no more than 0.2.
QKKL: the “one-hybrid fitness for binding NBS DNA” value amounted to 0.213.
To GAYF belongs no more than 0.2; to VADV, no more than 0.2.
Consider RENC, for which the “one-hybrid fitness for binding NBS DNA” value was no more than 0.2.
The same measure for RKLF: no more than 0.2; for RSQF: no more than 0.2; for PSYV: no more than 0.2.
With HFSG, the “one-hybrid fitness for binding NBS DNA” value was no more than 0.2.
The same measure for PEQC: no more than 0.2; for QGPT: no more than 0.2.
To CNGC belongs no more than 0.2; to VYET, no more than 0.2.
With CVNG, the “one-hybrid fitness for binding NBS DNA” value was no more than 0.2.
Take GYPR: the “one-hybrid fitness for binding NBS DNA” value was no more than 0.2.
For YSQT, the “one-hybrid fitness for binding NBS DNA” value is no more than 0.2.
For GVCG, the “one-hybrid fitness for binding NBS DNA” value is no more than 0.2.
The same measure for TNHE: no more than 0.2; for TTQY: no more than 0.2; for QTRN: 0.543.
Consider LSRG, for which the “one-hybrid fitness for binding NBS DNA” value was no more than 0.2.
VLEN: the “one-hybrid fitness for binding NBS DNA” value is no more than 0.2.
To IRRG belongs 0.242; to DQIF, no more than 0.2; to RGYG, no more than 0.2.
The same measure for HCHR: no more than 0.2; for SDVA: no more than 0.2.
The same measure for GKYW: no more than 0.2; for RLLC: no more than 0.2.
Turning to PAGW, the “one-hybrid fitness for binding NBS DNA” value is no more than 0.2.
On to SDNE, for which the “one-hybrid fitness for binding NBS DNA” value is no more than 0.2.
To ALTV belongs no more than 0.2; to LFWP, no more than 0.2.
For AVQS, the “one-hybrid fitness for binding NBS DNA” value is no more than 0.2.
As for PWRN, the “one-hybrid fitness for binding NBS DNA” value was no more than 0.2.
For the variant AVSK, the “one-hybrid fitness for binding NBS DNA” value was no more than 0.2.
Regarding RDTS, the “one-hybrid fitness for binding NBS DNA” value was no more than 0.2.
To NNSV belongs no more than 0.2; to HPSI, no more than 0.2; to KRYT, 0.613.
On to MVLK, for which the “one-hybrid fitness for binding NBS DNA” value was no more than 0.2.
PWKW: the “one-hybrid fitness for binding NBS DNA” value is no more than 0.2.
As to QSGA, the “one-hybrid fitness for binding NBS DNA” value was determined as 0.291.
The same measure for SEGR: no more than 0.2; for LRKK: no more than 0.2; for RYWC: no more than 0.2.
To QLED belongs no more than 0.2; to MYPM, no more than 0.2; to VNRD, no more than 0.2.
To PAMV belongs no more than 0.2; to PWMW, no more than 0.2; to VTRH, no more than 0.2.
With DDTR, the “one-hybrid fitness for binding NBS DNA” value is no more than 0.2.
Turning to FVPC, the “one-hybrid fitness for binding NBS DNA” value is no more than 0.2.
To CGYS belongs no more than 0.2; to DPAK, no more than 0.2.
To DPQT belongs no more than 0.2; to FAGD, no more than 0.2; to VNQW, no more than 0.2.
The same measure for VPLI: no more than 0.2; for PGNP: no more than 0.2.

These data come from a collection of fitness landscapes (doi:10.1016/j.celrep.2020.107928).
